Results on 58 compounds are retold here after PubChem BioAssay AID360 (National Center for Advancing Translational Sciences (NCATS), 2006).

The campaign covered roughly 48,000 compounds. About 550 (1.1%) were called active. Inconclusive results (about 4%) are left out. No stated cut-off is given here; in the data, active means potency below about 15 µM; inconclusive means mostly about 16 µM to 33 µM; inactive means weaker than that. Some of the results follow.
Potency means the concentration at half of the fitted maximal effect.

The target in the assay is Lysosomal acid glucosylceramidase (Homo sapiens) (UniProt P04062). Briefly: Glucocerebrosidase.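 Further: the screen sought inhibitors.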 The conditions noted are these: purified enzyme, resorufin glucoside fluorescence (screen aimed at inhibitors), 20 min. Put shortly: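 Compounds titrated against 0.2 nM normal enzyme, 30 uM resorufin beta-D-glucopyranoside substrate, citrate/phosphate buffer with taurocholate and tween-20, pH 5.9. Reaction ran 20 min at room temperature; fluorescence (Ex 548/Em 600) gave AC50.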
Sequence of UniProt P04062 (P04062 whole entry, looked up): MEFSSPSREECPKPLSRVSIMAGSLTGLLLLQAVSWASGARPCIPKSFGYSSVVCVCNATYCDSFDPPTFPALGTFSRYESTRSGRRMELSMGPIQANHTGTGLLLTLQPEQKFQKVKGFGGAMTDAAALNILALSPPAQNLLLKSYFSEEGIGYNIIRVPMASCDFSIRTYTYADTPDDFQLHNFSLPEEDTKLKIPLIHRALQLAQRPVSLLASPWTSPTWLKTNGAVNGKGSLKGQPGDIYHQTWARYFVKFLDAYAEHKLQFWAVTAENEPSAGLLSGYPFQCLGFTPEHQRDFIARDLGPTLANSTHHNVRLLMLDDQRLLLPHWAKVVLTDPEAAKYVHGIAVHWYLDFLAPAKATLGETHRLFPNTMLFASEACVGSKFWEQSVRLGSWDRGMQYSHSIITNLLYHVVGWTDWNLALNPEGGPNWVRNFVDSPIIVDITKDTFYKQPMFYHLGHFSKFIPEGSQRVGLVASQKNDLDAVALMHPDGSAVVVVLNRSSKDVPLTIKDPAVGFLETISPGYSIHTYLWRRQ
As for `O=C(Nc1nc(-c2ccc3c(c2)OCO3)cs1)c1ccncc1`, the Potency was inactive: > 76.9 µM. Consider `O=C(Oc1ccc2c(c1)OCO2)c1ccc(Br)c(S(=O)(=O)N2CCOCC2)c1`, for which the Potency was inactive: > 76.9 µM.

For `COc1cccc(N(CC(=O)NCCSc2ccccc2)S(C)(=O)=O)c1`, the Potency is inactive: > 76.9 µM.

Regarding `Cc1ccc(-n2c(O)cnc2Nc2nc(C)cc(C)n2)cc1`, the Potency was inactive: > 76.9 µM. In the case of `Clc1cccc2sc(N3CCOCC3)nc12`, the Potency is inactive: > 76.9 µM. As for `Cc1ccc(NCc2nnc(SCCN3CCCCC3)n2CC2CCCO2)c(C)c1` (stereo not drawn), the Potency is inactive: > 76.9 µM. Consider `N#CCCn1c(SCC(=O)NCC2CCCO2)nc2ccccc21` (stereo not drawn), for which the Potency is inactive: > 76.9 µM. `CCNc1nc(SC(C)C(=O)OC)nc(N2CCOCC2)n1` (stereo not drawn): the Potency was inactive: > 76.9 µM. In the case of `CS(=O)(=O)Nc1ccccc1C(=O)c1ccccc1` it was inactive: > 76.9 µM; in that of `CCOc1ccc(CCNC(=O)C2CCN(S(=O)(=O)CC)CC2)cc1OCC`, inactive: > 76.9 µM; in that of `COc1ccc(C)cc1NC(=O)c1cc2cc3ccc(C)cc3nc2o1`, inactive: > 76.9 µM.

In the case of `CC(C)Oc1cccc(C(=O)O)c1`, the Potency was inactive: > 76.9 µM. In the case of `CCNC(=O)CC1C(=O)N(c2ccc(F)cc2)C(=O)N1CCC(C)C` (stereo not drawn) it was inactive: > 76.9 µM; in that of `Cc1ccc(S(=O)(=O)N2CCCN(S(=O)(=O)C3CCS(=O)(=O)C3)CC2)cc1` (stereo not drawn), inactive: > 76.9 µM; in that of `Cc1ccc2nc3c(cc(C#N)c(=N)n3CC3CCCO3)c(=O)n2c1` (stereo not drawn), inactive: > 76.9 µM.

Regarding `Cc1ccc(-c2noc(C3CCCN(C(=O)c4ccccc4)C3)n2)o1` (stereo not drawn), the Potency is inactive: > 76.9 µM. On to `CCOC(=O)Cn1c(C)c(Br)c(=O)c2cccc(C)c21`, for which the Potency was inactive: > 76.9 µM. For the compound `O=C(Nc1ccc(NC(=O)C23CC4CC(CC(C4)C2)C3)cn1)c1ccco1`, the Potency is inactive: > 76.9 µM. With `Cc1ccc(Cn2ncc3c(NCCCN4CCOCC4)ncnc32)cc1`, the Potency entry is “inactive”. In the case of `CCN(C(=O)COC(=O)C(Cc1ccccc1)N1C(=O)c2ccccc2C1=O)C1CCS(=O)(=O)C1` (stereo not drawn) it was inactive: > 76.9 µM; in that of `O=C(NCCN1CCOCC1)c1ccc(-c2ccccc2)cc1`, “inactive”; in that of `CCOC(=O)CN(C(=O)CSc1nnc(-c2cccc(OC)c2)o1)c1ccc(F)cc1`, inactive: > 76.9 µM. With `COC(=O)c1[nH]c2ccccc2c1NS(=O)(=O)c1ccc(F)c(C)c1`, the Potency is inactive: > 76.9 µM. On to `Cc1ccccc1-c1nc2ccccc2c(=O)n1C1CCS(=O)(=O)C1` (stereo not drawn), for which the Potency is inactive: > 76.9 µM. The figure for `COP(=O)(/C=C/c1ccccc1)C(O)c1ccc(F)cc1` (stereo not drawn) is inactive: > 76.9 µM; for `COc1ccc(OCCOCC(O)CN2CCOCC2)cc1` (stereo not drawn) it is inactive: > 76.9 µM; for `CCOc1ccccc1C1CC(=O)Nc2cc(OC)c(OC)c(OC)c21` (stereo not drawn) it is inactive: > 76.9 µM. As for `COC(=O)c1sc(NC(=O)C2CCCO2)c(C(=O)OC)c1C` (stereo not drawn), the Potency is inactive: > 76.9 µM.

For the compound `CCC(c1nnnn1C(C)(C)C)N(CCOC)Cc1cc2cccc(C)c2n2nnnc12` (stereo not drawn), the Potency was inactive: > 76.9 µM. On to `Cn1c(Cc2csc(N)n2)nnc1SCC(=O)NC1CCCCC1`, for which the Potency is inactive: > 76.9 µM. Consider `c1ccc(CCc2nc(-c3cccnc3)no2)cc1`, for which the Potency was inactive: > 76.9 µM.

Regarding `Cc1ccc(Nc2c3c(nc4ncnn24)CCC3)cc1`, the Potency is inactive: > 76.9 µM. In the case of `O=C(CSc1nc2[nH]ncc2c(=O)n1-c1ccccc1Br)NCc1ccco1`, the Potency was inactive: > 76.9 µM. Regarding `Cc1onc(-c2ccccc2)c1C(=O)Nc1ccnn1C1CCCCC1`, the Potency was inactive: > 76.9 µM. `CC1CCCN(C(=O)CSc2nnc(-c3ccc(S(=O)(=O)N4CCOCC4)cc3)n2C)C1` (stereo not drawn): the Potency was inactive: > 76.9 µM.

For the compound `CCN(CC)c1ccc(NC(=O)C(C)C)cc1`, the Potency is inactive: > 76.9 µM. On to `O=S1(=O)CCN2C(c3ccc4c(c3)CCCC4)=CSC2=N1`, for which the Potency was inactive: > 76.9 µM. As for `O=C(CN1CCN(C(=O)c2ccccc2)CC1)Nc1ncc(Br)cc1Br`, the Potency is inactive: > 76.9 µM. Regarding `N#CCCSCc1ccc2oc(C(=O)O)cc2c1`, the Potency was inactive: > 76.9 µM. As for `Brc1ccc(CSc2nnc(-c3cnccn3)n2Cc2ccco2)cc1`, the Potency was inactive: > 76.9 µM.

For the compound `O=C(Cn1c(=O)c2c(ncn2Cc2ccccc2)n(Cc2ccccc2)c1=O)NC1CC1`, the Potency was inactive: > 76.9 µM.

Regarding `COc1ccc(C(=O)n2ccc(C)n2)cc1Br`, the Potency is inactive: > 76.9 µM.

Regarding `CCN1CCCC1CNC(=O)CSc1cc(=O)n(C)c2cc(Cl)ccc12` (stereo not drawn), the Potency is inactive: > 76.9 µM. Turning to `Cc1nc2cc(S(=O)(=O)C(F)(F)F)ccc2s1`, the Potency is inactive: > 76.9 µM.

Consider `N#Cc1cc(-c2ccccc2)oc1NC(=O)c1ccco1`, for which the Potency is inactive: > 76.9 µM. The figure for `COc1cc(C(=O)N(Cc2cc3ccccc3[nH]c2=O)CC2CCCO2)cc(OC)c1OC` (stereo not drawn) is inactive: > 76.9 µM. Turning to `Cn1c(N)c(C(=O)COC(=O)c2ccco2)c(=O)n(C)c1=O`, the Potency is inactive: > 76.9 µM. In the case of `Cc1c(C(=O)O)oc2ccc(S(=O)(=O)NCc3ccc4c(c3)OCO4)cc12` it was inactive: > 76.9 µM. In the case of `COc1ccc(CNC(=O)CSc2nnnn2-c2ccc(O)cc2)cc1`, the Potency was inactive: > 76.9 µM. Regarding `c1ccc2c(c1)CCCN2Cc1nnnn1C1CCCC1`, the Potency is inactive: > 76.9 µM. On to `CCOc1ccccc1-c1nc(C(N)=O)c2[nH]c(=O)n(-c3cccc(C)c3)c2n1`, for which the Potency is inactive: > 76.9 µM. As to `Cc1nn(C)c(C)c1CN(C)C(=O)c1cnn2c1NC(c1ccccc1)CC2C(F)(F)F` (stereo not drawn), the Potency was inactive: > 76.9 µM.

In the case of `CCOC(=O)c1ccccc1NC(=O)CSc1nnc(COc2ccccc2C)n1C`, the Potency was inactive: > 76.9 µM. Turning to `COc1cc(C(=O)Nc2nc(-c3cccs3)cs2)cc(OC)c1OC`, the Potency was inactive: > 76.9 µM. Regarding `CCCCOC(=O)Cn1c(=O)c2c(nc(Br)n2Cc2ccccc2)n(C)c1=O`, the Potency is inactive: > 76.9 µM. For `COc1ccc(-n2c3c(cc(C(=O)N4CCCCC4)c2=O)C(=O)CC(C)(C)C3)cc1`, the Potency is inactive: > 76.9 µM. Consider `Cc1cccnc1NCC(O)COc1ccccc1` (stereo not drawn), for which the Potency is inactive: > 76.9 µM. Consider `c1ccc(Cn2ncc3c2ncn2nc(-c4ccncc4)nc32)cc1`, for which the Potency was inactive: > 76.9 µM.
